{
  "source": "the supplement of paper PMC8728848",
  "experiment_in_all_cases": "glycan array binding signal (z-score within array); higher = stronger binding",
  "details_in_all_cases": "glycan notation: IUPAC condensed, linker removed",
  "key": {"[1]": {"molecular_target": "GlcNAc(a1-6)Gal(b1-4)GlcNAc", "in_short": "(§1)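 Negative Z-scores can be read as non-binding. The Z-score is calculated within each array and then averaged across arrays of one protein sequence at different concentrations or buffers and across linkers. Arrays, 3228 in all, were curated from the Consortium for Functional Glycomics database and kept only where the protein sequence was available.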"}, "[2]": {"molecular_target": "GlcNAc(b1-2)Gal(b1-3)GalNAc", "in_short": "as §1"}, "[3]": {"molecular_target": "GlcNAc(b1-2)Man(a1-3)[GlcNAc(b1-2)Man(a1-6)]Man(b1-4)GlcNAc(b1-4)GlcNAc", "in_short": "as §1"}, "[4]": {"molecular_target": "GlcNAc(b1-2)Man(a1-3)[GlcNAc(b1-2)Man(a1-6)]Man(b1-4)GlcNAc(b1-4)[Fuc(a1-6)]GlcNAc", "in_short": "as §1"}, "[5]": {"molecular_target": "GlcNAc(b1-2)Man(a1-3)[GlcNAc(b1-4)][GlcNAc(b1-2)Man(a1-6)]Man(b1-4)GlcNAc(b1-4)GlcNAc", "in_short": "as §1"}, "[6]": {"molecular_target": "GlcNAc(b1-2)Man(a1-3)[GlcNAc(b1-4)][GlcNAc(b1-2)Man(a1-6)]Man(b1-4)GlcNAc(b1-4)[Fuc(a1-6)]GlcNAc", "in_short": "as §1"}, "[7]": {"molecular_target": "GlcNAc(b1-2)[GlcNAc(b1-4)]Man(a1-3)[GlcNAc(b1-2)Man(a1-6)]Man(b1-4)GlcNAc(b1-4)GlcNAc", "in_short": "as §1"}, "[8]": {"molecular_target": "GlcNAc(b1-2)[GlcNAc(b1-4)]Man(a1-3)[GlcNAc(b1-4)][GlcNAc(b1-2)Man(a1-6)]Man(b1-4)GlcNAc(b1-4)GlcNAc", "in_short": "as §1"}, "[9]": {"molecular_target": "GlcNAc(b1-2)[GlcNAc(b1-4)]Man(a1-3)[GlcNAc(b1-4)][GlcNAc(b1-2)[GlcNAc(b1-6)]Man(a1-6)]Man(b1-4)GlcNAc(b1-4)GlcNAc", "in_short": "as §1"}, "[10]": {"molecular_target": "GlcNAc(b1-2)[GlcNAc(b1-4)]Man(a1-3)[GlcNAc(b1-4)][GlcNAc(b1-2)[GlcNAc(b1-6)]Man(a1-6)]Man(b1-4)GlcNAc(b1-4)[Fuc(a1-6)]GlcNAc", "in_short": "as §1"}, "[11]": {"molecular_target": "GlcNAc(b1-2)[GlcNAc(b1-6)]Man(a1-6)[GlcNAc(b1-2)Man(a1-3)]Man(b1-4)GlcNAc(b1-4)GlcNAc", "in_short": "as §1"}, "[12]": {"molecular_target": "GlcNAc(b1-2)[GlcNAc(b1-6)]Man(a1-6)[GlcNAc(b1-2)Man(a1-3)]Man(b1-4)GlcNAc(b1-4)[Fuc(a1-6)]GlcNAc", "in_short": "as §1"}, "[13]": {"molecular_target": "GlcNAc(b1-2)[GlcNAc(b1-6)]Man(a1-6)[GlcNAc(b1-4)][GlcNAc(b1-2)Man(a1-3)]Man(b1-4)GlcNAc(b1-4)GlcNAc", "in_short": "as §1"}, "[14]": {"molecular_target": "GlcNAc(b1-3)Fuc", "in_short": "as §1"}, "[15]": {"molecular_target": "GlcNAc(b1-3)Gal", "in_short": "as §1"}, "[16]": {"molecular_target": "GlcNAc(b1-3)Gal(b1-3)GalNAc", "in_short": "as §1"}, "[17]": {"molecular_target": "GlcNAc(b1-3)Gal(b1-4)Glc", "in_short": "as §1"}, "[18]": {"molecular_target": "GlcNAc(b1-3)Gal(b1-4)GlcNAc", "in_short": "as §1"}, "[19]": {"molecular_target": "GlcNAc(b1-3)Gal(b1-4)GlcNAc(b1-2)Man(a1-3)[GlcNAc(b1-3)Gal(b1-4)GlcNAc(b1-2)Man(a1-6)]Man(b1-4)GlcNAc(b1-4)GlcNAc", "in_short": "as §1"}, "[20]": {"molecular_target": "GlcNAc(b1-3)Gal(b1-4)GlcNAc(b1-2)Man(a1-3)[GlcNAc(b1-3)Gal(b1-4)GlcNAc(b1-2)Man(a1-6)]Man(b1-4)GlcNAc(b1-4)[Fuc(a1-6)]GlcNAc", "in_short": "as §1"}, "[21]": {"molecular_target": "GlcNAc(b1-3)Gal(b1-4)GlcNAc(b1-2)[GlcNAc(b1-3)Gal(b1-4)GlcNAc(b1-6)]Man(a1-6)[GlcNAc(b1-3)Gal(b1-4)GlcNAc(b1-2)Man(a1-3)]Man(b1-4)GlcNAc(b1-4)GlcNAc", "in_short": "as §1"}, "[22]": {"molecular_target": "GlcNAc(b1-3)Gal(b1-4)GlcNAc(b1-3)Gal(b1-4)GlcNAc", "in_short": "as §1"}},
  "note": "This is one part of the list.",
  "data": [
    {"binder": "AT5G01260(PC)(40) (Arabidopsis thaliana), Q9LFB0 (protein) MIGIGRTLTSSSPSKIILEDLPPGIYRYGTEIFTSVPRKTFHHIKFLRLDSAQSSRILKPVPLRSSSIKDSQVNVEDEEIEASNKTVRVRFQLRKECVFGEHFFIVGDDPVFGGLWDPETALPLNWSDGNVWTVDLDLPVGRLVEFKLLLKAQTGEILWQPGPNRALETWETNKTIRICEDWDNADLQMMIEEDFVPYTNISSIGSEDEDEVLGSVQQNSSVVAVENAGYVSDESAQNSSFSIQSEKTMEPSNGALTAREVIKEAMFTEEESPVLVPGLIPLSDLDNEQVEVINEGKAETFPEVDKKQEPKAERNKKAKVKAISLFEKSEQEAVKSVEQRQYNAVEEEQQRLETEPLGTPDVLFENDIQWGRRTLYKLLSNFRLF", "values": [
      {"measurement": "glycan array binding signal (z-score)", "setting": "[1]", "value": 0.435},
      {"measurement": "glycan array binding signal (z-score)", "setting": "[2]", "value": -0.771},
      {"measurement": "glycan array binding signal (z-score)", "setting": "[3]", "value": -0.443},
      {"measurement": "glycan array binding signal (z-score)", "setting": "[4]", "value": -0.198},
      {"measurement": "glycan array binding signal (z-score)", "setting": "[5]", "value": -0.267},
      {"measurement": "glycan array binding signal (z-score)", "setting": "[6]", "value": -0.661},
      {"measurement": "glycan array binding signal (z-score)", "setting": "[7]", "value": -0.588},
      {"measurement": "glycan array binding signal (z-score)", "setting": "[8]", "value": 0.153},
      {"measurement": "glycan array binding signal (z-score)", "setting": "[9]", "value": -0.822},
      {"measurement": "glycan array binding signal (z-score)", "setting": "[10]", "value": -0.516},
      {"measurement": "glycan array binding signal (z-score)", "setting": "[11]", "value": 0.08},
      {"measurement": "glycan array binding signal (z-score)", "setting": "[12]", "value": 0.234},
      {"measurement": "glycan array binding signal (z-score)", "setting": "[13]", "value": -0.575},
      {"measurement": "glycan array binding signal (z-score)", "setting": "[14]", "value": -0.109},
      {"measurement": "glycan array binding signal (z-score)", "setting": "[15]", "value": -0.592},
      {"measurement": "glycan array binding signal (z-score)", "setting": "[16]", "value": 0.885},
      {"measurement": "glycan array binding signal (z-score)", "setting": "[17]", "value": -0.576},
      {"measurement": "glycan array binding signal (z-score)", "setting": "[18]", "value": -0.384},
      {"measurement": "glycan array binding signal (z-score)", "setting": "[19]", "value": 0.329},
      {"measurement": "glycan array binding signal (z-score)", "setting": "[20]", "value": -0.424},
      {"measurement": "glycan array binding signal (z-score)", "setting": "[21]", "value": 1.23},
      {"measurement": "glycan array binding signal (z-score)", "setting": "[22]", "value": -0.868}
    ]}
  ]
}
